Results: PubChem BioAssay AID602340 (Broad Institute, 2012)
Screen size: about 330,000 compounds; about 2,600 (0.79%) were called active. The inconclusive results got no clear call from the source; some entries with a clear call stand among them for comparison.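 The calls were made as follows: active = mean ATP rescue above about 67%, or every replicate alone reaching that limit (limit read from the data, passing the limit was not always enough); inconclusive = no clear call, values can overlap the other calls; inactive = mean under the limit and some replicate under it.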

experiment: suppressors of statin myotoxicity in C2C12 myotubes, primary screen, cell-based, single point, plate reader (AID 602340); conditions: C2C12 myotubes + simvastatin, ATP luminescence, 48 h; at 7.49 µM; hits give high values; scaled: DMSO 0, geranylgeraniol control 100;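 also: myotubes were challenged with 10 µM simvastatin during compound exposure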

Question: With COC(=O)C(C(=O)Nc1cccc(C)n1)C1CCCCCC1 (stereo not given) as the molecule, how does the rescue of ATP level read?
Answer: inconclusive: 66.7%

Question: Which rescue of ATP level does the source give for CC1CCN(C(=O)CNC(=O)Cn2ccc3ccccc3c2=O)CC1 here?
Answer: inconclusive: 83.8%

Question: With CCn1c(CNc2ccc(C)cc2C)nnc1SCC(=O)N1CCCc2ccccc21 as the molecule, how does the rescue of ATP level read?
Answer: inconclusive: 71.7%

Question: For COc1ccc2nc(C)cc(Nc3ccc(C(=O)O)cc3)c2c1, which rescue of ATP level is on record?
Answer: inconclusive: -6.86%

Question: With O=c1cc(CN2CCOCC2)nc(C2CC2)[nH]1 as the molecule, how does the rescue of ATP level read?
Answer: inconclusive: 70.5%

Question: For CCN(CC)S(=O)(=O)c1ccc2c(c1)N(CC(=O)N(CCc1ccncc1)C(C)C)C(=O)CO2, which rescue of ATP level is on record?
Answer: inconclusive: -3.73%

Question: Which rescue of ATP level does the source give for Cc1ccc(S(=O)(=O)N(C)C[C@@H]2Oc3ccc(NS(=O)(=O)c4ccc(F)cc4)cc3C(=O)N([C@H](C)CO)C[C@@H]2C)cc1 here?
Answer: inconclusive: 66.1%

Question: Which rescue of ATP level does the source give for CCN(CC)C(=O)COc1coc(CN2CCN(c3cccc(Cl)c3)CC2)cc1=O here?
Answer: inconclusive: 65.3%

Question: Which rescue of ATP level does the source give for COc1cc(C2C3=C(CC(C)(C)CC3=O)NC3=C2C(=O)c2ccccc23)ccc1O (stereo not given) here?
Answer: inactive: 6.43%

Question: Which rescue of ATP level does the source give for C[C@H](CO)N1C[C@H](C)[C@H](CN(C)C(=O)Nc2cccc3ccccc23)Oc2ccc(NC(=O)Cn3cnnn3)cc2C1=O here?
Answer: inconclusive: 69.6%

Question: For O=C(CSc1nc2c(cnn2-c2ccc(F)cc2)c(=O)[nH]1)N1CCOCC1, which rescue of ATP level is on record?
Answer: inactive: -3.32%

Question: For O=C(C[C@H]1CC[C@H]2[C@@H](COC[C@@H](O)CN2Cc2ccc(Oc3ccccc3)cc2)O1)N1CCCCC1, which rescue of ATP level is on record?
Answer: inconclusive: 72%

Question: Which rescue of ATP level does the source give for O=C(C[C@@H]1C[C@@H]2c3cc(NC(=O)c4ccc5c(c4)OCO5)ccc3O[C@@H]2[C@@H](CO)O1)NCc1cccc(F)c1 here?
Answer: inactive: 19%

Question: With COc1ccc2[nH]c(=O)c(CN(CCc3ccccc3)C(C)=O)cc2c1 as the molecule, how does the rescue of ATP level read?
Answer: active: 114%

Question: Which rescue of ATP level does the source give for C[C@@H]1CN([C@@H](C)CO)C(=O)Cc2cc(NC(=O)CCCCCC(=O)Nc3ccccc3N)ccc2O[C@H]1CN(C)Cc1ccc(C(F)(F)F)cc1 here?
Answer: inconclusive: 75.2%

Question: Which rescue of ATP level does the source give for CCC(CC)c1nnc(NC(=O)COc2ccc3c(c2)OCO3)s1 here?
Answer: inactive: 14.5%

Question: With C[C@@H]1CCCCO[C@@H](CN(C)Cc2ccc(Cl)c(Cl)c2)[C@@H](C)CN([C@@H](C)CO)C(=O)c2cc(NC(=O)NC3CCCCC3)ccc2O1 as the molecule, how does the rescue of ATP level read?
Answer: inconclusive: 65.6%

Question: With C[C@H](CO)N1C[C@H](C)[C@@H](CN(C)S(=O)(=O)c2ccccc2)Oc2ncc(C#CCN(C)C)cc2C1=O as the molecule, how does the rescue of ATP level read?
Answer: inactive: 2.92%

Question: Which rescue of ATP level does the source give for COc1ccc(N/N=C(/C#N)S(=O)(=O)c2nsc(C)c2C#N)cc1 here?
Answer: inconclusive: 72.9%

Question: With C[C@@H]1CN([C@H](C)CO)C(=O)Cc2cc(NC(=O)CCCCCC(=O)Nc3ccccc3N)ccc2O[C@H]1CN(C)Cc1ccc(C(F)(F)F)cc1 as the molecule, how does the rescue of ATP level read?
Answer: inconclusive: 79%

Question: For N#Cc1c(/N=C/c2ccco2)sc2c1CCCCC2, which rescue of ATP level is on record?
Answer: inconclusive: 65.6%

Question: With COc1cc(CCCN2C(=S)NC[C@H]2Cc2ccc(O)cc2)cc(OC)c1OC as the molecule, how does the rescue of ATP level read?
Answer: inactive: 1.33%

Question: With CCOc1ccc(-c2nc(CSCC(=O)NCCN3CCOCC3)c(C)o2)cc1 as the molecule, how does the rescue of ATP level read?
Answer: active: 102%

Question: Which rescue of ATP level does the source give for Nc1nc(C2CC2)c(Sc2sc(N)nc2C2CC2)s1 here?
Answer: active: 69.4%

Question: Which rescue of ATP level does the source give for O=C(C[C@H]1CC[C@@H](NC(=O)C2CC2)[C@@H](CO)O1)NCCCN1CCOCC1 here?
Answer: inactive: -4.22%

Question: With COCC(=O)N1CC[C@H]2[C@H](CO)Nc3ccc(C#Cc4ccccc4)cc3[C@H]21 as the molecule, how does the rescue of ATP level read?
Answer: inactive: -2.22%

Question: Which rescue of ATP level does the source give for Cc1cc(C)c(Cn2c3ccccc3c3cnn(CC(=O)NCCN4CCOCC4)c(=O)c32)c(C)c1 here?
Answer: inconclusive: 74%

Question: For Cc1noc(C)c1NC(=O)N(C)C[C@@H]1OCCCC[C@@H](C)Oc2ccc(NS(=O)(=O)c3cn(C)cn3)cc2C(=O)N([C@H](C)CO)C[C@@H]1C, which rescue of ATP level is on record?
Answer: inconclusive: 72.3%

Question: Which rescue of ATP level does the source give for CCOc1ccc2nc(N/C(N)=N/S(C)(=O)=O)nc(C)c2c1 here?
Answer: inconclusive: 69%

Question: Which rescue of ATP level does the source give for Cc1cccc(/C=N/NC(=O)c2c(-c3ccccc3)noc2C)c1O here?
Answer: inactive: 5.44%

Question: With CCOC(=O)c1c(C)nc(C)c(C(=O)OCC)c1-c1cccnc1 as the molecule, how does the rescue of ATP level read?
Answer: inactive: 4.03%

Question: With COc1ccc(S(=O)(=O)Nc2ccc3c(c2)CC(=O)N([C@H](C)CO)C[C@@H](C)[C@@H](CN(C)C(=O)NC2CCCCC2)O3)cc1 as the molecule, how does the rescue of ATP level read?
Answer: inactive: -40.8%

Question: For COc1cccc(-c2ccc([C@@H]3[C@@H](C#N)N(C(=O)Cc4ccccc4)[C@H]3CO)cc2)c1, which rescue of ATP level is on record?
Answer: inconclusive: 75.2%

Question: Which rescue of ATP level does the source give for C[C@@H]1CN([C@@H](C)CO)C(=O)Cc2cc(NC(=O)CCCCCC(=O)Nc3ccccc3N)ccc2O[C@@H]1CN(C)CC1CCCCC1 here?
Answer: inconclusive: 69%

Question: For Cc1cc(C)n(-c2ccc(C(=O)Oc3ccc4c(c3)OCO4)cc2)n1, which rescue of ATP level is on record?
Answer: inconclusive: 75.5%

Question: For CCS(=O)(=O)Nc1ccc2c(c1)C(=O)N(C)C[C@H](OC)[C@@H](C)CN(Cc1ccccn1)[C@H](C)CO2, which rescue of ATP level is on record?
Answer: inactive: -4.87%

Question: Which rescue of ATP level does the source give for CC=Cc1ccc2n(c1=O)C[C@@H]1[C@@H](CO)[C@H](C(=O)NC3Cc4ccccc4C3)N(CC3CC3)[C@H]21 (mixture of isomers) here?
Answer: inactive: -2.18%

Question: For CCc1ccc(N2CSC3=C(C#N)C(c4cccs4)CC(=O)N3C2)cc1 (stereo not given), which rescue of ATP level is on record?
Answer: inactive: -14.5%

Question: With O=C(Nc1ccc2nc3n(c(=O)c2c1)CCCCC3)c1c(F)ccc([N+](=O)[O-])c1F as the molecule, how does the rescue of ATP level read?
Answer: active: 204%

Question: Which rescue of ATP level does the source give for COCCn1c(-c2ccc(OC)cc2)nc2oc3cc(OC)ccc3c(=O)c2c1=O here?
Answer: inconclusive: 86.1%

Question: Which rescue of ATP level does the source give for NC(Cc1ccc2nonc2c1)C(=O)O (stereo not given) here?
Answer: inconclusive: 73.9%

Question: With NS(=O)(=O)c1ccc(CCNC(=O)CNCCc2ccccc2)cc1 as the molecule, how does the rescue of ATP level read?
Answer: inconclusive: 23.1%

Question: Which rescue of ATP level does the source give for COc1cccc(-c2nnc(NC(=O)C(C)C)o2)c1 here?
Answer: inconclusive: 69.6%

Question: With CCc1cccc(CC)c1NC(=O)NC1CCCCC1 as the molecule, how does the rescue of ATP level read?
Answer: inconclusive: 98.3%

Question: For COc1cc(C(=O)Nc2ccncc2)cc(OC)c1OC, which rescue of ATP level is on record?
Answer: inactive: -25.4%

Question: For COc1ccccc1C(=O)NC(=S)Nc1ccc(NC(=O)c2ccco2)cc1, which rescue of ATP level is on record?
Answer: inactive: 16.3%

Question: For C[C@@H]1CCCCO[C@@H](CN(C)C(=O)Nc2cccc3ccccc23)[C@H](C)CN([C@H](C)CO)C(=O)c2cc(NC(=O)c3ccncc3)ccc2O1, which rescue of ATP level is on record?
Answer: active: 135%

Question: Which rescue of ATP level does the source give for OCCOCCn1c(C(CO)Nc2nc(-c3ccc(Cl)cc3)cs2)nc2ccccc21 (stereo not given) here?
Answer: inconclusive: 67.7%

Question: For COc1ccc(NC(=O)Nc2cccc3c2O[C@@H](CN(C)C(=O)Nc2cccc4ccccc24)[C@H](C)CN([C@@H](C)CO)C3=O)cc1, which rescue of ATP level is on record?
Answer: inconclusive: 71.2%

Question: Which rescue of ATP level does the source give for O=[N+]([O-])c1ccc(Cl)c(S(=O)(=O)/N=C(/Nc2cccnc2)c2ccccc2)c1 here?
Answer: inconclusive: 69.3%

Question: Which rescue of ATP level does the source give for O=S(=O)(c1ccccc1)N1CCN(Cc2ccccc2C(F)(F)F)CC1 here?
Answer: inconclusive: 68.6%

Question: With O=S(=O)(NCC1CCCO1)c1ccc2oc3ccc(S(=O)(=O)NCC4CCCO4)cc3c2c1 (stereo not given) as the molecule, how does the rescue of ATP level read?
Answer: inconclusive: 65.2%

Question: With C[C@H](CO)N1C[C@H](C)[C@@H](CN(C)Cc2ccccc2)Oc2c(NS(=O)(=O)c3ccc(Cl)cc3)cccc2C1=O as the molecule, how does the rescue of ATP level read?
Answer: inactive: -9.92%

Question: Which rescue of ATP level does the source give for Cc1cc(NC(=O)COC(=O)C2CCC(=O)N2)c([N+](=O)[O-])cc1C (stereo not given) here?
Answer: inconclusive: 7.03%

Question: For CN(C)Cc1csc(NC(=O)Nc2ccccc2Oc2ccccc2)n1, which rescue of ATP level is on record?
Answer: active: 72.8%

Question: With Cc1ccc(NC(=O)CSc2n[nH]c(-c3ccccn3)n2)cc1 as the molecule, how does the rescue of ATP level read?
Answer: inconclusive: 93.1%

Question: For Cc1n[nH]c(C)c1S(=O)(=O)N1CCN(c2ccccn2)CC1, which rescue of ATP level is on record?
Answer: active: 77.6%

Question: With CC(C)CC#Cc1cnc2c(c1)C(=O)N([C@@H](C)CO)C[C@@H](C)[C@H](CN(C)C(=O)Cc1ccccc1)O2 as the molecule, how does the rescue of ATP level read?
Answer: inconclusive: 70.6%

Question: For c1coc(C2=Nc3cccc4cccc(c34)N2)c1, which rescue of ATP level is on record?
Answer: inconclusive: 73.1%

Question: Which rescue of ATP level does the source give for CN(Cc1nc(-c2cnccn2)no1)CC1(c2ccccc2)CC1(C)C (stereo not given) here?
Answer: inactive: 2.86%

Question: For COc1ccc(S(=O)(=O)Nc2ccc3c(c2)C(=O)N([C@@H](C)CO)C[C@@H](C)[C@H](CN(C)C(=O)Nc2cccc4ccccc24)OCCCC[C@@H](C)O3)cc1, which rescue of ATP level is on record?
Answer: inconclusive: 90%

Question: For O=C(/C=C/c1ccc2ccccc2n1)c1cc(Cl)ccc1O, which rescue of ATP level is on record?
Answer: inconclusive: 15%

Question: With C[C@@H]1CN([C@H](C)CO)C(=O)c2cc(NC(=O)c3ccncc3)ccc2O[C@@H](C)CCCCO[C@@H]1CN(C)Cc1ccc(C(F)(F)F)cc1 as the molecule, how does the rescue of ATP level read?
Answer: inconclusive: 75.6%

Question: With COc1cccc(C(=O)NC(C)c2cccc3ccccc23)c1OC (stereo not given) as the molecule, how does the rescue of ATP level read?
Answer: inconclusive: 67%

Question: For Cc1ccc(N(CN2CCCC2=O)C(=O)c2ccc(C)c(C)c2)cc1, which rescue of ATP level is on record?
Answer: active: 113%

Question: Which rescue of ATP level does the source give for O=C1C(SC(F)(F)C(F)F)=C(C(F)(F)F)OC2C3C=CC(C3)C12 (stereo not given) here?
Answer: active: 107%

Question: With CC(=O)Nc1ccc(/C=C2\CCc3ccccc3C2=O)cc1 as the molecule, how does the rescue of ATP level read?
Answer: inconclusive: 11.5%

Question: With CCCNC(=O)CN(Cc1ccccc1F)S(=O)(=O)c1ccc(C)cc1 as the molecule, how does the rescue of ATP level read?
Answer: inconclusive: 88.3%

Question: With O=C1c2ccccc2C(=O)N1CCc1nc2ccccc2c(=O)n1CCCn1ccnc1 as the molecule, how does the rescue of ATP level read?
Answer: active: 95.1%

Question: With CC1CCCCC1N(C)C1CCN(C(=O)CNC(=O)/C=C/c2cccc(Cl)c2)CC1 (stereo not given) as the molecule, how does the rescue of ATP level read?
Answer: inactive: -212%

Question: For C[C@@H]1CN([C@@H](C)CO)C(=O)Cc2cc(NC(=O)Cc3cn(C)c4ccccc34)ccc2O[C@@H]1CN(C)S(=O)(=O)c1ccc(Cl)cc1, which rescue of ATP level is on record?
Answer: inconclusive: 69.9%

Question: Which rescue of ATP level does the source give for COc1ccc(Nc2nc(C)cc(C)c2C(N)=O)cc1 here?
Answer: inconclusive: 67.6%

Question: With O=C(NC1CC2CCCC(C1)N2C(=O)Nc1ccccc1F)C1CC1 (stereo not given) as the molecule, how does the rescue of ATP level read?
Answer: inconclusive: 66.7%

Question: Which rescue of ATP level does the source give for COc1ccccc1CNC(=O)Cn1cccc1C(=O)c1ccccc1C here?
Answer: inactive: 10.4%

Question: With Cc1noc(C)c1NC(=O)Nc1cccc2c1O[C@@H](CN(C)Cc1ccc(-c3ccccc3)cc1)[C@H](C)CN([C@H](C)CO)C2=O as the molecule, how does the rescue of ATP level read?
Answer: inconclusive: 67.8%
